The text below walks through data of publication PMC4242493.

This is one part of the list. The list includes weakly bound sequences.

This assay addresses MaxL homodimer (UniProt P61244). Briefly: universal protein-binding microarray (PBM). The conditions noted are these: PBS-based mixture, 10 nM His-tagged protein dimer, 2% milk, 200 ng/uL BSA, 50 ng/uL salmon testes DNA, 0.02% TX-100; detection with Alexa 488 anti-His …; high values mean tight binding; most listed sequences are background and not binding sites; double strand, one strand shown.
UniProt P61244, sequence (P61244 whole entry): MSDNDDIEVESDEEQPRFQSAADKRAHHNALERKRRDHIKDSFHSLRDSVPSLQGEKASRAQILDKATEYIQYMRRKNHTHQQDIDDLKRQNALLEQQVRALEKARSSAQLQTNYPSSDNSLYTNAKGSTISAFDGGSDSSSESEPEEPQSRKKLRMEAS
On to TGCTTGAA, for which the binding signal (normalized occupancy) was 0.0759.

With GCGTTACC, the binding signal (normalized occupancy) came to 0.0704.

As to ACAGGGAG, the binding signal (normalized occupancy) was 0.0726.

As to CTCCTGCA, the binding signal (normalized occupancy) turned out to be 0.0753.

On to CCTACACC, for which the binding signal (normalized occupancy) came to 0.0813.

With CCTGTTCC, the binding signal (normalized occupancy) turned out to be 0.0756.

Consider AAAGAACT, for which the binding signal (normalized occupancy) amounted to 0.074.

On to GGCATATA, for which the binding signal (normalized occupancy) was determined as 0.083.

As for ATACTCCA, the binding signal (normalized occupancy) worked out at 0.0795.

On to GCAGGCGC, for which the binding signal (normalized occupancy) is 0.0701.

Turning to AGTTATTA, the binding signal (normalized occupancy) is 0.0813.

Turning to CAATCTGA, the binding signal (normalized occupancy) was 0.0715.

CATTATTC: the binding signal (normalized occupancy) amounted to 0.0828.

As for CTCATGAC, the binding signal (normalized occupancy) worked out at 0.0906.

Regarding ATCTGTAG, the binding signal (normalized occupancy) stood at 0.0767.

For ACGGGGTC, the binding signal (normalized occupancy) is 0.0767.

Take CACGACAA: the binding signal (normalized occupancy) is 0.0838.

For the sequence AGTACAGC, the binding signal (normalized occupancy) turned out to be 0.0795.

In the case of GAAATGTA, the binding signal (normalized occupancy) stood at 0.0821.

With CCTGCAGC, the binding signal (normalized occupancy) was 0.074.

In the case of AGTGACCA, the binding signal (normalized occupancy) came to 0.0753.

Consider CTTGCACC, for which the binding signal (normalized occupancy) is 0.07.

As to ACTATAAT, the binding signal (normalized occupancy) worked out at 0.0832.

Regarding CTGGAGTC, the binding signal (normalized occupancy) worked out at 0.0677.

On to ACATAGAA, for which the binding signal (normalized occupancy) amounted to 0.0839.

AATTTGAA: the binding signal (normalized occupancy) amounted to 0.0696.

AACCAATT: the binding signal (normalized occupancy) worked out at 0.0737.

Consider CTTTGTAC, for which the binding signal (normalized occupancy) was 0.0768.

Take CGATAGAA: the binding signal (normalized occupancy) came out at 0.0785.

With GCTCCATA, the binding signal (normalized occupancy) turned out to be 0.0816.

As for AAGTGATA, the binding signal (normalized occupancy) was determined as 0.0795.

Take GGAGATAA: the binding signal (normalized occupancy) stood at 0.0763.

As for ATTTCTCA, the binding signal (normalized occupancy) came to 0.0749.

Consider CTATGACA, for which the binding signal (normalized occupancy) came to 0.0778.

Take AGCTAATA: the binding signal (normalized occupancy) was 0.071.

With ACGACTCT, the binding signal (normalized occupancy) is 0.0746.

Consider AAACCACC, for which the binding signal (normalized occupancy) is 0.0775.

As to TCGTTCAA, the binding signal (normalized occupancy) is 0.0769.

With AACAACGG, the binding signal (normalized occupancy) amounted to 0.0733.

For GTCACGAA, the binding signal (normalized occupancy) is 0.0778.

As for AGGTTAGA, the binding signal (normalized occupancy) was 0.0719.

In the case of GCAATCGA, the binding signal (normalized occupancy) stood at 0.072.

Turning to CCAGTGCA, the binding signal (normalized occupancy) was found to be 0.0738.

With GCCAGAAA, the binding signal (normalized occupancy) was determined as 0.0686.

Turning to AAGCAACG, the binding signal (normalized occupancy) is 0.0753.

Regarding ACTCTCTC, the binding signal (normalized occupancy) was found to be 0.0783.

For ATTGATCG, the binding signal (normalized occupancy) was 0.0783.

With CGTATCGC, the binding signal (normalized occupancy) was 0.0739.

On to CGCCACGC, for which the binding signal (normalized occupancy) stood at 0.0953.

Consider CACACAAA, for which the binding signal (normalized occupancy) is 0.0793.

In the case of CGTTATTA, the binding signal (normalized occupancy) stood at 0.0757.

AATCGGCA: the binding signal (normalized occupancy) amounted to 0.0719.

Consider CGTAAATC, for which the binding signal (normalized occupancy) is 0.0744.

Turning to AGCCTTGG, the binding signal (normalized occupancy) stood at 0.0703.

For the sequence ACCGAGTA, the binding signal (normalized occupancy) turned out to be 0.077.

As for TCCATAGA, the binding signal (normalized occupancy) is 0.0742.

As for GTAGCAGA, the binding signal (normalized occupancy) was 0.0734.

Regarding CACACAGA, the binding signal (normalized occupancy) was determined as 0.075.

For the sequence CAGGGCAA, the binding signal (normalized occupancy) was found to be 0.0701.

On to CGGGGTCA, for which the binding signal (normalized occupancy) turned out to be 0.0776.

ACGGTGAA: the binding signal (normalized occupancy) was determined as 0.0796.

As for GATTCAAC, the binding signal (normalized occupancy) stood at 0.0763.

Take AAGCTTCT: the binding signal (normalized occupancy) amounted to 0.0702.

As for TACTGCAA, the binding signal (normalized occupancy) was 0.0788.

As for CCTCAACC, the binding signal (normalized occupancy) came out at 0.0752.

Take CGTTGGCA: the binding signal (normalized occupancy) amounted to 0.0756.

As for CCAACCAG, the binding signal (normalized occupancy) is 0.0696.

In the case of TCGCTTCA, the binding signal (normalized occupancy) amounted to 0.0721.

GAGGTTAC: the binding signal (normalized occupancy) is 0.0757.

Consider AGACTGAC, for which the binding signal (normalized occupancy) was 0.0694.

For the sequence CAGGCCGC, the binding signal (normalized occupancy) was determined as 0.0666.

For AGACTGGC, the binding signal (normalized occupancy) was found to be 0.0718.

For the sequence TAACGATA, the binding signal (normalized occupancy) was 0.083.

Turning to GAAGTCTA, the binding signal (normalized occupancy) amounted to 0.075.

Turning to CAGAGTGC, the binding signal (normalized occupancy) stood at 0.0724.

As to GACGGGGC, the binding signal (normalized occupancy) was 0.0753.

Consider CTTAGGGC, for which the binding signal (normalized occupancy) stood at 0.0708.

In the case of AGTGTGCG, the binding signal (normalized occupancy) turned out to be 0.0802.

Turning to CATTTTCG, the binding signal (normalized occupancy) was 0.0762.

Turning to CTGGAGCA, the binding signal (normalized occupancy) came out at 0.0712.

Turning to AACCACTG, the binding signal (normalized occupancy) is 0.0734.

ATGGGGCA: the binding signal (normalized occupancy) was determined as 0.0873.

As to GTTGCACA, the binding signal (normalized occupancy) is 0.0734.

In the case of ACCTATTA, the binding signal (normalized occupancy) was found to be 0.0816.

For AGGGTCAT, the binding signal (normalized occupancy) was determined as 0.0797.

Consider ATTGCTGA, for which the binding signal (normalized occupancy) was 0.0799.

As for TAGTGAAA, the binding signal (normalized occupancy) came out at 0.0775.

Consider AATAGACT, for which the binding signal (normalized occupancy) was found to be 0.0786.

With ATCGATAC, the binding signal (normalized occupancy) was found to be 0.0835.

As for GAACATGA, the binding signal (normalized occupancy) worked out at 0.0904.

As to ACTTGCAA, the binding signal (normalized occupancy) was 0.0705.

For the sequence CGGTGCTC, the binding signal (normalized occupancy) is 0.0727.

In the case of CTAAGGTC, the binding signal (normalized occupancy) came to 0.0732.

For ACTTTACG, the binding signal (normalized occupancy) was determined as 0.072.
